# Test results reported in PubChem BioAssay (NCATS).
# Inconclusive results, whose numbers are uncertain, are shown with a selection of clear calls. For part of these data: Potencies of inconclusive entries are left out as doubtful fits. The source made the active and inactive calls. Unless noted, calls come from the whole dose curve; as a rule, active = well fitted curve in the direction sought with a large enough effect; inconclusive = small, poorly fitted or top-dose-only effect, or another doubt; inactive = no such curve, though single readings can be large; an effect the other way counts as inactive or inconclusive.
# Columns and labels:
# [1] = biological target: Cytochrome P450 2D6 (Homo sapiens) (UniProt P10635); test: qHTS Assay for Inhibitors and Substrates of Cytochrome P450 2D6 (AID 891); conditions: recombinant CYP2D6, luciferin-ME EGE luminescence; activity change, negative = inhibition: at 57.1 µM (top of the series);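 note: luciferin methyl ether substrate demethylated by CYP2D6 with NADPH regeneration; nearly all actives have a fitted effect of over 60% in size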; note: potency is the fitted concentration of half-maximal effect
# Chain of UniProt P10635 (P10635 whole entry, looked up): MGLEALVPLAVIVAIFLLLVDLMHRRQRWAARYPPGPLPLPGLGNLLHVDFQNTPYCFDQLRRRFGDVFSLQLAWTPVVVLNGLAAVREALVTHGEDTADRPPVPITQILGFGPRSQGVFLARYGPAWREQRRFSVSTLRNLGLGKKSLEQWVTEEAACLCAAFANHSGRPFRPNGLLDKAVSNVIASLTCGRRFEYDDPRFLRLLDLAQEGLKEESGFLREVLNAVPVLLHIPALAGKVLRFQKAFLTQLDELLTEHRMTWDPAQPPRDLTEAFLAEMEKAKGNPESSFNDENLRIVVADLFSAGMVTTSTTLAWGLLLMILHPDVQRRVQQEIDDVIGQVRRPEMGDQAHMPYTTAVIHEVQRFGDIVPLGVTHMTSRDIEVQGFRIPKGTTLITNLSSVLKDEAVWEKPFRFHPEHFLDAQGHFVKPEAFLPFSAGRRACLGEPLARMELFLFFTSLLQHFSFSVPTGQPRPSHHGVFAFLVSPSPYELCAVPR
# Outline: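 Human CYP2D6 (5 nM) with 30 uM Luciferin-ME EGE (at Km) in 100 mM KPO4, compound preincubated 10 min, then NADPH regeneration system for 60 min at room temperature. Luciferin read by luminescence; normalized to 1.43 uM quinidine.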
# [2] = qHTS of pediatric cancer cell lines to identify multiple opportunities for drug repurposing: Primary screen for NB1643 cells (AID 1347099); note: nearly all actives have a fitted effect of over 50% in size; note: potency is the fitted concentration of half-maximal effect
# Outline: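 ATP-based luminescence (CellTiter-Glo) quantifies viability after a 48-hour exposure. Compounds are dosed across 8 or 11 final concentrations; DMSO and 2.3 µM bortezomib serve as controls.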
# [3] = biological target: Endonuclease 4 (Escherichia coli (strain K12)) (UniProt P0A6C1); test: Counterscreen for APE1 Inhibitors: qHTS Validation Assay for Inhibitors of Endonuclease IV (AID 1708); note: potency is the fitted concentration of half-maximal effect
# Outline: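 E. coli EndoIV at 2 nM final, preincubated 15 min at room temperature with compound, then 50 nM TAMRA/BHQ-2 THF abasic-site duplex added. Buffer: 50 mM Tris-HCl pH 7.5, 50 mM NaCl, 2 mM MgCl2, 1 mM DTT, 0.01% Tween-20. Kinetic fluorescence increase, third minus first read.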
# [4] = qHTS for differential inhibitors of proliferation of Plasmodium falciparum line 3D7 (AID 1876); note: potency is the fitted concentration of half-maximal effect;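 for activity, negative = inhibition: parasite growth measured after three days of culture; 0% = vehicle wells and -100% = reference inhibitor wells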
# [5] = qHTS for differential inhibitors of proliferation of Plasmodium falciparum line HB3 (AID 1886); conditions: Potency: Plasmodium falciparum HB3 proliferation inhibition;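 note: potency is the fitted concentration of half-maximal effect; parasites grown with compound for 72 h before SYBR Green readout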
# [6] = qHTS Validation Assay to Find Inhibitors of Chronic Active B-Cell Receptor Signaling (AID 485345; active = well fitted curve in the direction sought with a large enough effect in the main read-out, with a control signal flat, not every such curve was filed as active; inconclusive = small, poorly fitted or top-dose-only effect, or effect the other way, or a change in a side signal; inactive = no such curve, though single readings can be large or run the other way;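 note: 0% = untreated basal cells and 100% = 10 µM MG-132 proteasome inhibitor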); conditions: ABC-DLBCL cells, chronic BCR signaling reporter, CBG luciferase; at 46.1 µM (top of the series)
# Outline: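 TMD8 ABC-DLBCL cells stably carrying doxycycline-inducible IkappaBalpha–green luciferase fusion plus unfused red luciferase; compounds 46 uM to 3 nM, 4 h at 37C with doxycycline. Corrected green/red luminescence ratio normalized to 10 uM MG-132 and basal cell wells; curves fitted.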
# [7] = Quantitative high throughput screen for delayed death inhibitors of the malarial parasite plastid, 48 hour incubation (AID 488752); note: nearly all actives have a fitted effect of over 65% in size; note: potency is the fitted concentration of half-maximal effect; for activity change, negative = inhibition: % is set by controls: 0 for no effect and ±100 for the full control effect
# Outline: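 Erythrocytes infected with firefly luciferase-expressing P. falciparum (2% hematocrit, 0.1% parasitemia) cultured with compound for 48 h at 37 C, 5% CO2, in RPMI 1640/0.5% Albumax. Growth inhibition read as loss of luminescence.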
# [8] = Nrf2 qHTS screen for inhibitors: Validation (AID 493153; active = well fitted inhibition curve with a large enough effect in the main read-out, with a control signal flat, not every such curve was filed as active; inconclusive = small, poorly fitted or top-dose-only effect, or effect the other way, or a change in a side signal; inactive = no such curve, though single readings can be large or run the other way; note: potency is the fitted concentration of half-maximal effect); conditions: A549 ARE-Fluc reporter, luciferase luminescence, 18-24 h
# Outline: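 A549 cells carrying ARE-firefly luciferase reporter, 5000 cells/well in 5% FBS OPTI-MEM, treated with compound over a concentration series for 18-24 h at 37 C. Luciferase luminescence gave Nrf2 activity; CellTiter-Fluor fluorescence gave viability.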
# [9] = Natriuretic polypeptide receptor (hNpr1) antagonism - Pilot counterscreen GloSensor control cell line (AID 1347045; calls by dose curve; note: potency is the fitted concentration of half-maximal effect; for activity change, negative = inhibition: % is set by controls: 0 for no effect and ±100 for the full control effect)
# Outline: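 HEK293 cGMP GloSensor cells preloaded 2 h with 2% GloSensor reagent, then compound 30 min before baseline luminescence read. Stimulated with 50 uM sodium nitroprusside, 20 min at room temperature, then read again; counterscreen for Npr1 antagonism.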
# [10] = Quantitative High-Throughput drug screen in 47 multiple myeloma cell lines against the NCATS MIPE library collection: AMO1_DSMZ cell viability assay (AID 1918927; note: nearly all actives have a fitted effect of over 30% in size; note: potency is the fitted concentration of half-maximal effect); conditions: AMO1 myeloma cells viability, CellTiter-Glo ATP luminescence, 48 h; viability, % of DMSO: at 45.8 µM (top of the series)
# Outline: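 Primary qHTS used for cherry-picking: cells at 500/well, library compounds for 48 h (37C, 5% CO2), luminescent ATP assay.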
# [11] = Quantitative High-Throughput drug screen in 47 multiple myeloma cell lines against the NCATS MIPE library collection: ARP1_JJKsccF8 cell viability assay (AID 1918928; note: potency is the fitted concentration of half-maximal effect; nearly all actives have a fitted effect of over 40% in size)
# Outline: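 Myeloma cells at 500 per well in 1536-well format treated with MIPE 4.0 library by pin transfer for 48 h at 37C, 5% CO2. Viability from ATP luminescence (CellTiter-Glo), normalized to DMSO (100%) and media-only (0%) wells.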
# [12] = Quantitative High-Throughput drug screen in 47 multiple myeloma cell lines against the NCATS MIPE library collection: KMS27_JCRB cell viability assay (AID 1918970); conditions: KMS27 myeloma cells, CellTiter-Glo ATP viability, 48 h; viability (% of DMSO): at 45.8 µM (top of the series); note: nearly all actives have a fitted effect of over 30% in size; note: potency is the fitted concentration of half-maximal effect
# Outline: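 KMS27_JCRB myeloma cells, 500 per well, exposed 48 h at 37 C, 5% CO2 to MIPE 4.0 compounds. Viability from ATP by CellTiter-Glo luminescence, normalized to DMSO (100%) and medium-only (0%) wells.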
# [13] = Quantitative High-Throughput drug screen in 47 multiple myeloma cell lines against the NCATS MIPE library collection: KMS26_JCRB cell viability assay (AID 1918975); note: nearly all actives have a fitted effect of over 45% in size
# Outline: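 Steps: seed 500 cells per well; pin-transfer MIPE 4.0 library; incubate 48 h at 37C, 5% CO2, humidified; add CellTiter-Glo, 5 min room temperature; read luminescence.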
# [14] = Quantitative High-Throughput drug screen in 47 multiple myeloma cell lines against the NCATS MIPE library collection: MM1S_ATCC cell viability assay (AID 1918980); note: nearly all actives have a fitted effect of over 45% in size; note: potency is the fitted concentration of half-maximal effect
# Outline: (§1)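 500 cells/well per myeloma line exposed to pinned MIPE 4.0 compounds for 48 h at 37 °C, 5% CO2. Viability read as ATP by CellTiter-Glo luminescence, normalised to DMSO-only (100%) and media-only (0%) wells.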
# [15] = Quantitative High-Throughput drug screen in 47 multiple myeloma cell lines against the NCATS MIPE library collection: KMS28PE_JCRB cell viability assay (AID 1918983); note: nearly all actives have a fitted effect of over 35% in size; note: potency is the fitted concentration of half-maximal effect
# Outline: as §1
# [16] = system: CP262; test: qHTS profiling for inhibitors of Plasmodium falciparum proliferation (AID 504749); note: nearly all actives have a fitted effect of over 60% in size; note: potency is the fitted concentration of half-maximal effect;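 for activity, negative = inhibition: 0% = DMSO vehicle and full inhibition = artemisinin control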; conditions: P. falciparum in erythrocytes, SYBR Green DNA, 72 h; series mostly up to 28.7 µM
# Outline: (§2)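 P. falciparum-infected erythrocytes (0.3% parasitemia, 2.5% hematocrit) incubated with compound 72 h at 37 C, 5% CO2. Parasite DNA detected by SYBR Green after lysis, overnight at room temperature; normalised to 0.29 uM artemisinin and DMSO.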
# [17] = system: DFO2036; test: as above; conditions: P. falciparum in erythrocytes, SYBR Green DNA, 72 h; series mostly up to 28.7 µM
# Outline: as §2
# [18] = system: PC49; test: as above; conditions: P. falciparum in erythrocytes, SYBR Green DNA, 72 h; series mostly up to 28.7 µM
# Outline: as §2
# [19] = AP1 Signaling Pathway (AID 357; active = well fitted curve in either direction with a large enough effect, not every such curve was filed as active; inconclusive = small, poorly fitted or top-dose-only effect, or another doubt;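 note: ME-180 reporter cells stimulated with EGF at its EC50 level; top concentration of the series differs between compounds; % is set by controls: 0 for no effect and ±100 for the full control effect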); conditions: ME-180 AP-1-bla reporter, EGF-induced, beta-lactamase ratio, 5 h
# Outline: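 AP-1-bla ME-180 cells, Opti-MEM + 0.5% dialyzed FBS, plated overnight 37 °C. Cpd titration + EC50 EGF, 5 h 37 °C. CCF4 2.5 h RT; ex 405, em 460/530 ratio → %activity, AC50.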
# [20] = Stat Signaling Pathway (AID 446; active = well fitted curve in either direction with a large enough effect, not every such curve was filed as active; inconclusive = small, poorly fitted or top-dose-only effect, or another doubt;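 note: ME-180 cervical cancer cells given 40 pM IL-6 alongside compound; SIE-controlled beta-lactamase reporter measured as 460/530 nm FRET emission ratio; top concentration of the series differs between compounds; % is set by controls: 0 for no effect and ±100 for the full control effect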); conditions: ME-180 SIE beta-lactamase reporter, IL-6 stimulated, 5 h
# Outline: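 ME-180 cells carrying a SIE-driven beta-lactamase reporter are stimulated with 40 pM IL-6 for 5 h at 37C in the presence of compound. The 460/530 nm FRET substrate ratio is read after 2.5 h at RT. Data are normalised to 300 pM IL-6 and to 125 nM JAK inhibitor controls.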
# Tags give direction and shape of the fitted curve.
structure (smiles),measurement,setting,value
CCN(CC)CCc1nc(-c2ccccc2)no1,Potency,[1],"inconclusive [inhibitor, full curve]"
same,Potency,[2],inactive
O=C1CCc2cc(OCCCCc3nnnn3C3CCCCC3)ccc2N1,Potency,[3],"inconclusive [inhibitor, partial curve]"
same,Potency,[4],"inconclusive [inhibitor, single point]"
same,Potency,[5],"inconclusive [inhibitor, partial curve]"
same,activity change,[6],inconclusive: -84%
same,Potency,[7],inactive
same,Potency,[8],"inconclusive [inhibitor, partial curve, poor fit]"
same,Potency,[9],inactive
same,Potency,[10],inactive
same,Potency,[11],"inconclusive [rising, full curve, poor fit]"
same,Potency,[12],inactive
same,Potency,[13],inactive
same,Potency,[14],"inconclusive [cytotoxic, partial curve, poor fit]"
same,Potency,[15],inactive
same,Potency,[16],"inconclusive [activator, full curve, poor fit]"
same,Potency,[17],"inconclusive [inhibitor, single point]"
same,Potency,[18],"inconclusive [inhibitor, single point]"
CC(N)C12CC3CC(CC(C3)C1)C2 (configuration not stated),Potency,[2],"inconclusive [cytotoxic, full curve]"
same,Potency,[10],"inconclusive [cytotoxic, single point]"
same,Potency,[11],"inconclusive [cytotoxic, full curve, poor fit]"
same,Potency,[13],inactive
same,Potency,[14],inactive
CC1(C)[C@@H](O)CC[C@]2(C)[C@H]3C(=O)C=C4[C@@H]5C[C@@](C)(C(=O)O)CC[C@]5(C)CC[C@@]4(C)[C@]3(C)CC[C@@H]12,Potency,[18],inactive
O=C(O)CN(CCN(CC(=O)O)CC(=O)O)CCN(CC(=O)O)CC(=O)O,Potency,[3],"inconclusive [inhibitor, full curve]"
same,Potency,[4],inactive
same,activity change,[6],inactive: 11.4%
same,Potency,[16],"inconclusive [inhibitor, partial curve, poor fit]"
Clc1cccc(C(c2ccc3nc[nH]c3c2)n2ccnc2)c1 (configuration not stated),Potency,[17],active: 10 µM
CC(=O)c1ccc(S(=O)(=O)NC(=O)NC2CCCCC2)cc1,Potency,[1],inactive
CC(C)N(CCC(=O)c1ccc2ccccc2c1)Cc1ccccc1,"activity change, negative = inhibition",[19]; at 38 µM (top of the series),inconclusive: -109% [inhibitor]
same,"activity, negative = inhibition",[20]; at 38 µM (top of the series),inconclusive: -80.5% [inhibitor]
same,Potency,[9],active: 13.1 µM
CCOC(=O)N1CCC(=C2c3ccc(Cl)cc3CCc3cccnc32)CC1,"activity change, negative = inhibition",[19]; at 17.2 µM (top of the series),inconclusive: -43.3% [inhibitor]
same,"activity change, negative = inhibition",[19]; at 38 µM (top of the series),inconclusive: -34.7% [inhibitor]
same,"activity, negative = inhibition",[20]; at 17.2 µM (top of the series),inconclusive: -37.5% [inhibitor]
same,"activity, negative = inhibition",[20]; at 38 µM (top of the series),inconclusive: -35.7% [inhibitor]
same,Potency,[5],active: 10 µM
same,Potency,[7],"inconclusive [inhibitor, single point]"
same,Potency,[8],"inconclusive [inhibitor, partial curve, poor fit]"
same,Potency,[12],"inconclusive [cytotoxic, full curve, poor fit]"
same,Potency,[15],"inconclusive [cytotoxic, single point]"
